{
  "source": "PubChem BioAssay AID902",
  "about": "(National Center for Advancing Translational Sciences (NCATS), 2007)",
  "note": "Hit rate of the full screen: of about 130,000 compounds, about 1,900 (1.5%) were called active. Inconclusive results, whose numbers are uncertain, are shown with a selection of clear calls. Calls come from the whole dose curve; as a rule, active = well fitted cell-killing curve with a large enough effect; inconclusive = small, poorly fitted or top-dose-only effect; inactive = no such curve, though single readings can be large or run the other way. Potencies of inconclusive entries are doubtful fits and often do not repeat. % is set by controls: 0 for no effect and ±100 for the full control effect; potency is the fitted concentration of half-maximal effect; tags give direction and shape of the fitted curve.",
  "data": [
    {"assay": "qHTS Screen for Compounds that Selectively Target Cancer Cells with p53 Mutations: Cytotoxicity of p53ts Cells at the Nonpermissive Temperature; note: nearly all actives have a fitted effect of over 55% in size", "conditions": "H1299-p53A138V viability at 39C, ATP luminescence, 24 h; activity change, negative = cell killing: at 46.1 µM (top of the series)", "values": [
      {"smiles": "O=C(CSc1nnc(-c2cccnc2)n1Cc1ccco1)Nc1nc(-c2ccc(F)cc2)cs1", "Potency": "inactive"},
      {"smiles": "O=C(CN1C(=O)CC(c2ccccc2)Sc2ccccc21)Nc1cccc(Cl)c1", "note": "(centres undefined)", "Potency": "inconclusive: 0.199 µM [cytotoxic, full curve, poor fit]"},
      {"smiles": "Cc1ccc(-c2cnc(NCc3ccc(C(F)(F)F)cc3)n2C)cc1", "activity change, negative = cell killing": "inconclusive: -82.4% [cytotoxic]"},
      {"smiles": "COc1ccc(Cl)cc1NC(=O)c1c(NCc2sccc2C)sc2c1CCCC2", "Potency": "inactive"},
      {"smiles": "C=CCc1ccccc1OCC(O)CN1CCN(c2ccccc2)CC1", "note": "(centres undefined)", "Potency": "inconclusive: 15.8 µM [cytotoxic, single point]"},
      {"smiles": "Cc1c(O)c(Br)c(C)c(O)c1Br", "note": "(tested in a mixture with another compound)", "Potency": "inconclusive: 3.16 µM [cytotoxic, single point]"},
      {"smiles": "CCn1c(=O)n(CC)c2cc(N3CCCCC3)c(NC(=O)Nc3ccccc3C(F)(F)F)cc21", "Potency": "inconclusive: 0.005 µM [cytotoxic, full curve, poor fit]"},
      {"smiles": "O=C(CCn1c(=O)sc2ccccc21)Nc1ccon1", "Potency": "inconclusive: 25.1 µM [cytotoxic, single point]"},
      {"smiles": "Cc1cc2ccccc2n1CCNC(=O)C(C)(C)C", "Potency": "inconclusive: 12.6 µM [cytotoxic, single point]"},
      {"smiles": "O=S(=O)(CCOc1ccccc1)c1nc2ccccc2[nH]1", "Potency": "inconclusive: 31.6 µM [cytotoxic, single point]"},
      {"smiles": "COc1ccc2nc(NC(=O)c3cc(C)oc3C)sc2c1", "Potency": "inconclusive: 12.6 µM [cytotoxic, partial curve]"},
      {"smiles": "COc1cc(NC(=O)CSC2=Nc3ccccc3N=C(c3ccc(F)cc3)C2)cc(OC)c1", "Potency": "inconclusive: 0.0501 µM [cytotoxic, full curve, poor fit]"},
      {"smiles": "COc1ccc(-n2c(C)c(C(C)=O)c(C(C)=O)c2C)cc1OC", "Potency": "inactive"},
      {"smiles": "O=C(CCn1c(=O)sc2ccccc21)Nc1nccs1", "Potency": "inconclusive: 12.6 µM [cytotoxic, partial curve]"},
      {"smiles": "Cc1ccc(NC(=O)CCC(=O)N2CCOc3ccccc32)c(Cl)c1", "Potency": "inconclusive: 5.01 µM [cytotoxic, partial curve]"},
      {"smiles": "CCCC1(C(=O)OCC)NC(c2ccc(N(C)C)cc2)C2C(=O)N(c3ccc(OCC)cc3)C(=O)C21", "note": "(centres undefined)", "Potency": "inactive"},
      {"smiles": "CCN(CC(=O)NC1CCCCC1)S(=O)(=O)c1ccc(Cl)cc1", "Potency": "inactive"},
      {"smiles": "CC(C)(C)c1ccc(NC(=O)CSc2nnc3scc(-c4ccccc4)n23)cc1", "Potency": "inactive"},
      {"smiles": "COc1ccc(OC)c(NC(=O)c2cc3ccccc3o2)c1", "Potency": "inactive"},
      {"smiles": "CCOc1cc(N2CCOCC2)c(OCC)cc1NC(=O)COc1cccc2cccnc12", "Potency": "inconclusive: 31.6 µM [cytotoxic, single point]"},
      {"smiles": "CCOc1ccc(CCNC(=O)CN2C(=O)C(CC)Oc3ccccc32)cc1OCC", "note": "(centres undefined)", "Potency": "inconclusive: 20 µM [cytotoxic, partial curve, poor fit]"},
      {"smiles": "COc1ccc(NC(=O)c2c(NCc3ccc(C)o3)sc3c2CCC(C)C3)c(OC)c1", "note": "(centres undefined)", "Potency": "active: 20 µM"},
      {"smiles": "CCN(C(=O)CSc1nc2nc(C)cc(C)n2n1)c1ccccc1", "Potency": "inactive"},
      {"smiles": "CCC(C(=O)N1CCN(c2ccccc2)CC1)n1nc(C)n2c(cc3sccc32)c1=O", "note": "(centres undefined)", "Potency": "inconclusive: 31.6 µM [cytotoxic, partial curve, poor fit]"},
      {"smiles": "COc1ccc(CN(CC2CCCO2)C(=O)CN2C(=O)COc3ccccc32)cc1OC", "note": "(centres undefined)", "Potency": "inactive"},
      {"smiles": "CCC(CC)c1nn2c(=O)cc(COc3ccc(NC(=O)c4ccccc4Cl)cc3)nc2s1", "Potency": "inactive"},
      {"smiles": "CC1COC2=C1C(=O)C(=O)c1c2ccc2c1CCCC2(C)C", "note": "(centres undefined)", "Potency": "inactive"},
      {"smiles": "Cc1ccc(S(=O)(=O)NCCSc2nnnn2-c2cc(C)ccc2C)cc1", "Potency": "inactive"},
      {"smiles": "COc1cc(-c2nnc(SCC(=O)NCc3ccccc3Cl)o2)cc(OC)c1OC", "Potency": "inconclusive: 5.01 µM [cytotoxic, partial curve]"},
      {"smiles": "CC(C)Cn1c(=O)c2ccccc2n2c(CCC(=O)Nc3cccc(Cl)c3)nnc12", "Potency": "inconclusive: 12.6 µM [cytotoxic, partial curve]"},
      {"smiles": "Cc1c(NC(=O)c2ccc(OC(C)C)cc2)cccc1-c1nc2ncccc2o1", "Potency": "inconclusive: 10 µM [cytotoxic, partial curve, poor fit]"},
      {"smiles": "O=C(NCCN1CCCC1)c1ccc(-n2c(=O)c(=O)[nH]c3ccccc32)cc1", "Potency": "inactive"},
      {"smiles": "Cc1ccc(CNC(=O)C2CCCN(S(=O)(=O)c3ccc4c(c3)oc(=O)n4C)C2)cc1", "note": "(centres undefined)", "Potency": "inconclusive: 31.6 µM [cytotoxic, single point]"},
      {"smiles": "Cc1ccc(S(=O)(=O)C(CNC(=O)C(=O)NCc2ccc(Cl)cc2)c2cccs2)cc1", "note": "(centres undefined)", "Potency": "inactive"},
      {"smiles": "CCCS(=O)(=O)Nc1cc(-c2cn3cccc(C)c3n2)ccc1C", "Potency": "inconclusive: 25.1 µM [cytotoxic, single point]"},
      {"smiles": "COC(=O)C(Cc1c[nH]c2ccccc12)NC(=O)COc1ccc(Cl)cc1Cl", "note": "(centres undefined)", "Potency": "inconclusive: 35.5 µM [cytotoxic, single point]"},
      {"smiles": "O=C(CSc1nnc(-c2ccc3c(c2)OCCO3)o1)N1CCCC1", "Potency": "inconclusive: 20 µM [cytotoxic, single point]"},
      {"smiles": "Cc1ccc(C(C)C)c(OCC(=O)Nc2cccc(NC(=O)c3ccco3)c2)c1", "Potency": "inconclusive: 15.8 µM [cytotoxic, single point]"},
      {"smiles": "Cc1ccc(-c2ccc(=O)n(Cc3cc(C)ccc3C)n2)cc1", "Potency": "inconclusive: 15.8 µM [cytotoxic, partial curve]"},
      {"smiles": "Cc1oc2ccc(O)c(CN(C)Cc3ccccc3)c2c1C(=O)Nc1cccc(C(F)(F)F)c1", "Potency": "active: 20 µM"},
      {"smiles": "Cc1cccc(C)c1Nc1sc(C(=O)c2ccccc2)c(N)c1C(=O)Nc1ccc(F)cc1", "Potency": "inactive"},
      {"smiles": "COc1cccc(-c2ccc3c(N)c(C(=O)c4ccc(Cl)cc4)sc3n2)c1", "Potency": "inconclusive: 25.1 µM [cytotoxic, single point]"},
      {"smiles": "Cn1c(-c2ccc(Br)o2)nc2cc(Br)ccc21", "Potency": "inconclusive: 12.6 µM [cytotoxic, single point]"},
      {"smiles": "Cn1nc(-c2ccc(C(=O)Nc3ccc(F)cc3)cc2)c2ccccc2c1=O", "Potency": "inconclusive: 25.1 µM [cytotoxic, single point]"},
      {"smiles": "COc1ccc2cc(-c3nc4ccc(C(=O)O)cc4[nH]3)c(=O)oc2c1", "Potency": "active: 2.51 µM"},
      {"smiles": "C=Cc1ccc(Cn2nc(-c3ccc(C)c(S(=O)(=O)N(CC)CC)c3)ccc2=O)cc1", "Potency": "inactive"},
      {"smiles": "COc1ccccc1NC(=O)c1cc2c(=O)oc3ccc(C)cc3c2s1", "Potency": "inactive"},
      {"smiles": "CCOC(=O)c1ccc(N2CCN(c3cc(C)ccc3C)CC2)c(NC(=O)Nc2ccccc2)c1", "Potency": "inconclusive: 1.58 µM [cytotoxic, full curve, poor fit]"},
      {"smiles": "CC1CN(C(=O)Nc2ccc(C(=O)NCc3cccc(F)c3)cc2)c2ccccc2S1", "note": "(centres undefined)", "Potency": "inactive"},
      {"smiles": "CCOc1ccccc1NC(=O)c1c(NC(=O)c2cccc(C)c2)sc2c1CCCC2", "Potency": "inactive"},
      {"smiles": "Cc1cc(C)c2c(CC(=O)Nc3c(C(=O)Nc4ccc(Cl)cc4)oc4ccccc34)coc2c1", "Potency": "inconclusive: 31.6 µM [cytotoxic, single point]"},
      {"smiles": "COc1cc(C(=O)Nc2ccc3oc(-c4ccc(C)c(Br)c4)nc3c2)cc(OC)c1OC", "Potency": "inconclusive: 31.6 µM [cytotoxic, single point]"},
      {"smiles": "COc1ccc(NC(=O)c2cccn2-c2nnc(N3CCCCC3)s2)cc1", "Potency": "inconclusive: 2.24 µM [cytotoxic, full curve]"},
      {"smiles": "CCOC(=O)C1CCCN(S(=O)(=O)c2cn(C)c(=O)n(C)c2=O)C1", "note": "(centres undefined)", "Potency": "inactive"},
      {"smiles": "CN1C(=O)c2cccc3c(S(=O)(=O)Nc4ccccn4)ccc1c23", "Potency": "inconclusive: 35.5 µM [cytotoxic, single point]"},
      {"smiles": "Clc1ccc(OCc2nnc(SCc3nc4ccccc4[nH]3)n2Cc2ccco2)cc1", "Potency": "inactive"},
      {"smiles": "CSc1ccc(CNC(=O)c2ccc(NC(=O)c3nsc4ccccc34)cc2)cc1", "Potency": "inconclusive: 12.6 µM [cytotoxic, partial curve]"},
      {"smiles": "Cc1ccccc1NC(=O)Cn1c(=O)n(CC2CCC(C(=O)NCCc3ccccc3)CC2)c(=O)c2ccccc21", "note": "(centres undefined)", "Potency": "inconclusive: 15.8 µM [cytotoxic, single point]"},
      {"smiles": "Nc1c(C(=O)Nc2ccccc2)nnn1Cc1ccc(F)cc1Cl", "Potency": "inconclusive: 10 µM [cytotoxic, single point]"},
      {"smiles": "CCN1CCN(C(=O)c2cc3cc4cc(OC)ccc4nc3s2)CC1", "Potency": "inactive"},
      {"smiles": "CCOc1ccccc1C(=O)Nc1nc2c(s1)CC(C)CC2", "note": "(centres undefined)", "Potency": "inconclusive: 3.98 µM [cytotoxic, single point]"},
      {"smiles": "COc1ccc(Cl)cc1NC(=O)Cn1c(=O)n(CCC(=O)NCc2ccc3c(c2)OCO3)c(=O)c2ccccc21", "Potency": "inconclusive: 20 µM [cytotoxic, single point]"},
      {"smiles": "CCCCn1c(=N)n(CC(O)COc2ccc(C)cc2)c2ccccc21", "note": "(centres undefined)", "Potency": "inconclusive: 10 µM [cytotoxic, partial curve]"},
      {"smiles": "CC(C)Nc1ncnc2c1cnn2-c1ccc(Cl)cc1", "Potency": "active: 15.8 µM"},
      {"smiles": "Cc1ccc(C(=O)Cn2c3c(sc2=N)CCCC3)cc1", "Potency": "active: 1.58 µM"},
      {"smiles": "Cn1cc(C(=O)N2CCN(c3cccc(C(F)(F)F)c3)CC2)c2c3ccccc3n(C)c2c1=O", "Potency": "active: 12.6 µM"},
      {"smiles": "COc1ccccc1N1CCN(c2nc(-c3ccc(C)cc3)nc3ccccc23)CC1", "Potency": "inconclusive: 20 µM [cytotoxic, partial curve]"},
      {"smiles": "N#C/C(=C\\c1ccc[nH]1)Sc1nc2ccccc2s1", "Potency": "inconclusive: 25.1 µM [cytotoxic, single point]"},
      {"smiles": "CCCOc1c(Cl)cc(C(=O)N(Cc2cccc(OC)c2)C2CCS(=O)(=O)C2)cc1Cl", "note": "(centres undefined)", "Potency": "inconclusive: 0.01 µM [cytotoxic, full curve, poor fit]"}
    ]}
  ]
}
